# Laboratory results as given in a collection of fitness landscapes (doi:10.1126/science.1257360).
# This is one part of the list.
# B1: PhoQ; a variant is named by its letters at X, in order, P23837 (parent)
# chain: MKKLLRLFFPLSLRVRFLLATAAVVLVLSLAYGMVALIGYSVSFDKTTFRLLRGESNLFYTLAKWENNKLHVELPENIDKQSPTMTLIYDENGQLLWAQRDVPWLMKMIQPDWLKSNGFHEIEADVNDTSLLLSGDHSIQQQLQEVREDDDDAEMTHSVAVNVYPATSRMPKLTIVVVDTIPVELKSSYMVWSWFIYVLSANLLLVIPLLWVAAWWSLRPIEALAKEVRELEEHNRELLNPATTRELTSLVRNLNRLLKSERERYDKYRTTLTDLTHSLKTPLXXLQXXLRSLRSEKMSVSDAEPVMLEQISRISQQIGYYLHRASMRGGTLLSRELHPVAPLLDNLTSALNKVYQRKGVNISLDISPEISFVGEQNDFVEVMGNVLDNACKYCLEFVEISARQTDEHLYIVVEDDGPGIPLSKREVIFDRGQRVDTLRPGQGVGLAVAREITEQYEGKIVAGESMLGGARMEVIFGRQHSAPKDE
# Variants of: B1
# Experiment: enrichment ratio after two sorts for PhoP signalling (ratio (wild type AVST 3.29)); higher = more functional
# Details: with PhoP (E. coli)
row,Variant,enrichment ratio
1,HHDY,≤ 0.25
2,IIHP,≤ 0.25
3,TRRR,≤ 0.25
4,ARCQ,10.3
5,ENGR,≤ 0.25
6,VKTD,≤ 0.25
7,YCYA,≤ 0.25
8,QYDS,≤ 0.25
9,MSCV,15.3
10,MDAM,≤ 0.25
11,LWDP,≤ 0.25
12,FGSK,≤ 0.25
13,VIRR,≤ 0.25
14,TVQM,5.48
15,HFTR,≤ 0.25
16,TGID,≤ 0.25
17,DQLD,≤ 0.25
18,AALC,13.9
19,IWAC,≤ 0.25
20,WEGR,≤ 0.25
21,KAAK,≤ 0.25
22,EMQL,≤ 0.25
23,ITVM,≤ 0.25
24,RSML,≤ 0.25
25,EFWL,≤ 0.25

row,Variant,enrichment ratio
1,WTLA,≤ 0.25
2,RQYY,≤ 0.25
3,NHCS,≤ 0.25
4,SIIT,≤ 0.25
5,RSCS,≤ 0.25
6,EETR,≤ 0.25
7,DAGQ,≤ 0.25
8,IQRL,0.347
9,SRDS,≤ 0.25
10,HTSV,≤ 0.25
11,REDD,≤ 0.25
12,LTYR,≤ 0.25
13,VSNE,≤ 0.25
14,TSFH,1.38
15,WYLS,≤ 0.25
16,WEKT,≤ 0.25
17,SVCD,8.16
18,NSNR,≤ 0.25
19,TYQY,≤ 0.25
20,IWVL,≤ 0.25
21,YFSV,≤ 0.25
22,HNYH,≤ 0.25
23,EDWP,≤ 0.25
24,VRDM,≤ 0.25
25,IPHH,≤ 0.25

row,Variant,enrichment ratio
1,IWWK,≤ 0.25
2,FYPC,≤ 0.25
3,FGGP,0.335
4,IEDC,≤ 0.25
5,NSCG,≤ 0.25
6,HHAM,≤ 0.25
7,WLLW,≤ 0.25
8,MQYW,≤ 0.25
9,RQDH,≤ 0.25
10,NFWL,≤ 0.25
11,MLPR,≤ 0.25
12,HQYW,≤ 0.25
13,VNDD,≤ 0.25
14,QWST,≤ 0.25
15,GVLN,10.1
16,QGEK,≤ 0.25
17,PNDC,≤ 0.25
18,FPPY,≤ 0.25
19,WKYL,≤ 0.25
20,DTFY,≤ 0.25
21,NSRS,≤ 0.25
22,QRLP,≤ 0.25
23,LHQG,≤ 0.25
24,SARI,≤ 0.25
25,IQWH,≤ 0.25

row,Variant,enrichment ratio
1,FRIR,≤ 0.25
2,FYWT,≤ 0.25
3,IGCS,≤ 0.25
4,DNSQ,≤ 0.25
5,TPWD,≤ 0.25
6,PEPA,≤ 0.25
7,NTDT,≤ 0.25
8,HRHY,≤ 0.25
9,TPIH,≤ 0.25
10,KLIC,≤ 0.25
11,NEHT,≤ 0.25
12,NCHR,≤ 0.25
13,LRFN,≤ 0.25
14,QQRP,≤ 0.25
15,HSGL,≤ 0.25
16,DAWH,≤ 0.25
17,MQWM,14.1
18,VLGH,≤ 0.25
19,PEMV,≤ 0.25
20,GCNF,≤ 0.25
21,FSSL,≤ 0.25
22,PYEP,≤ 0.25
23,PPYP,0.943
24,QECI,5.02
25,YASC,≤ 0.25

row,Variant,enrichment ratio
1,KSTN,≤ 0.25
2,DRHH,≤ 0.25
3,LGNR,≤ 0.25
4,ILEG,≤ 0.25
5,KSIC,≤ 0.25
6,NMAG,≤ 0.25
7,FQAF,≤ 0.25
8,SRVR,0.281
9,NKMS,≤ 0.25
10,MMGT,≤ 0.25
11,WMDP,≤ 0.25
12,NISA,≤ 0.25
13,GVTA,≤ 0.25
14,TTRG,≤ 0.25
15,GAPI,≤ 0.25
16,LPIQ,≤ 0.25
17,GWRD,≤ 0.25
18,FSLR,≤ 0.25
19,VWSA,≤ 0.25
20,SWRY,≤ 0.25
21,KCCI,≤ 0.25
22,HGMC,13.3
23,SKAN,≤ 0.25
24,MIQS,≤ 0.25
25,PDQR,≤ 0.25

row,Variant,enrichment ratio
1,KHSL,≤ 0.25
2,RSKM,≤ 0.25
3,LESW,≤ 0.25
4,NWQF,≤ 0.25
5,GTQD,≤ 0.25
6,LKLK,≤ 0.25
7,FRTS,≤ 0.25
8,NDMM,≤ 0.25
9,WLYC,≤ 0.25
10,ELML,≤ 0.25
11,LTTP,≤ 0.25
12,MFFH,≤ 0.25
13,YCLF,0.497
14,EKCV,≤ 0.25
15,YWIV,≤ 0.25
16,TTAY,1.38
17,ARAK,≤ 0.25
18,GSDK,≤ 0.25
19,RLER,≤ 0.25
20,INVY,≤ 0.25
21,AWCH,≤ 0.25
22,LHTM,≤ 0.25
23,WLDR,≤ 0.25
24,GYFA,≤ 0.25
25,EMGI,≤ 0.25

row,Variant,enrichment ratio
1,NMIW,≤ 0.25
2,WYNG,≤ 0.25
3,HYWD,≤ 0.25
4,RTCK,≤ 0.25
5,LQKL,≤ 0.25
6,MNEK,≤ 0.25
7,DPHA,≤ 0.25
8,SGTF,2.63
9,HHLY,≤ 0.25
10,DLFF,≤ 0.25
11,IDDD,≤ 0.25
12,KISV,≤ 0.25
13,TGWM,0.965
14,TMAS,15
15,WGDK,≤ 0.25
16,LYGA,≤ 0.25
17,QDCI,≤ 0.25
18,FWRL,≤ 0.25
19,QHFW,≤ 0.25
20,LHVR,≤ 0.25
21,GKCI,≤ 0.25
22,HQIF,≤ 0.25
23,DECA,≤ 0.25
24,NWDD,≤ 0.25
25,NAQF,≤ 0.25

row,Variant,enrichment ratio
1,FWKM,≤ 0.25
2,YRNQ,≤ 0.25
3,RSHS,≤ 0.25
4,PYLY,≤ 0.25
5,AQSP,≤ 0.25
6,ESVN,≤ 0.25
7,GEKC,≤ 0.25
8,FYMQ,≤ 0.25
9,IIIQ,≤ 0.25
10,MEEF,≤ 0.25
11,GNDN,0.537
12,DFKW,≤ 0.25
13,KDNA,≤ 0.25
14,QPAN,≤ 0.25
15,TVWH,2.12
16,MQDF,≤ 0.25
17,IMLG,≤ 0.25
18,IWAD,≤ 0.25
19,FVGC,≤ 0.25
20,HDHW,≤ 0.25
